Experimental data: patent publication EP4450093A1, “CLEAVABLE IMMUNE CELL ENGAGERS” (Synaffix B.V., priority 2023, dated 2024)

How the values were obtained:
[1] = Freeze-thaw stability study, aggregate levels by SE-HPLC; type: physicochemical; settings: 1 mg/mL in PBS pH 7.4; snap-frozen in liquid nitrogen and thawed 5 times; SE-HPLC after 0, 1, 3 and 5 cycles; compared to genetic fusion IC1
Protocol: HPLC-SEC analysis was performed on an Agilent 1100 series (Hewlett Packard) using an Xbridge BEH200A (3.5 µM, 7.8x300 mm, PN 186007640 Waters) column. The sample was diluted to 1 mg/mL in PBS and measured with 0.86 mL/min isocratic method (0.1 M sodium phosphate buffer pH 6.9 (NaHPO4/Na2PO4) containing 10% isopropanol) for 16 minutes.
Next, samples were snap-frozen using liquid nitrogen and thawed again. This step was performed 5 times. Aggregate levels were determined by SE-HPLC after 0, 1, 3 and 5 cycles (Figure 21).

IL-15 cells = test: In vitro IL-15 bioassay (Promega, bioluminescent, STAT-5 response element readout); type: cell-based, mouse
Protocol: IL-15 activity was monitored using an IL-15 bioassay (Promega, cat.# JA2015). This is a bioluminescent cell-based assay designed to measure IL-15 stimulation or inhibition using the STAT-5 response element as a readout. When IL-15 binds to its receptor, receptor-mediated pathway signalling induces luminescence that can be detected upon addition of a substrate and quantified with a luminometer. The assay was performed according to the manufacturer's instructions. In short, cleaved or intact antibody-cytokine conjugates or controls were added in duplo to IL-15 cells in a square root of 10-fold dilution series to obtain a final concentration ranging from 0.1 to 1000 pM unless stated otherwise (in case of cleaved constructs the concentration refers to the initial antibody-cytokine conjugate). IL-15 cells were incubated for 6 hours in a humidified atmosphere at 37°C and 5% CO2. Detection reagent (Bio-Gio™ luciferase Assay reagent) was then added and chemiluminescence intensity was recorded with a microplate reader (Envision, PerkinElmer). Data analysis was performed using Graphpad prism software. EC50 values were calculated by non-linear regression and maximum fold induction was calculated by dividing the relative luminescence units (RLU) of treated cells by the RLU of untreated cells (both background substracted).
The activity of 5 intact antibody-cytokine conjugates was measured via the in vitro IL-15 bioassay. mPD-L1-v1a-218-NHO2-PF52 (2:2) was included both with and without pretreatment with MT-SP1 for comparison. MT-SP1 treatment was performed according to example 58. […] Table 3. EC50 values and maximum fold induction of intact and cleaved antibody-cytokine conjugates as determined by the IL-15 bioassay.
Antibody-cytokine conjugates were pre-treated with MT-SP1 according to example 58 to obtain the free cytokines. The activity of 5 cleaved antibody-cytokine conjugates was measured via the in vitro IL-15 bioassay according to the general procedure. […] Table 4. EC50 values and maximum fold induction of antibody-cytokine conjugates pre-treated with MT-SP1 determined by the IL-15 bioassay
mPD-L1-v1a-218-NHO2-PF52 (2:2) and mPD-L1-v1a-218-NHO2-PF56 (2:2) were pre-treated with MT-SP1 according to example 58 to obtain the free cytokines. The activity of both compounds was measured with and without pre-treated with MT-SP1 using the in vitro IL-15 bioassay. Non-modified cytokine PF52 was included as a reference. Cleaved and intact mPD-L1-v1a-218-NHO2-PF56 (2:2) was added in a higher final concentration ranging from 32 pM to 316 nM (square root of 10-fold dilution series). […] Table 5. EC50 values and maximum fold induction of intact and cleaved antibody-cytokine conjugates as determined by the IL-15 bioassay. Non-modified cytokine P52 was included as a reference.
Non-modified cytokine PF50 and the non-modified antibody trastuzumab were included as controls. […] Table 6. EC50 values and maximum fold induction of intact and cleaved antibody-cytokine conjugates as determined by the IL-15 bioassay. Non-modified cytokine P52 was included as a reference.

[2] = In vivo tolerability, single s.c. dose, body weight; design: species or system female BALB/c mice; settings: for MTD: single dose s.c., groups of 3 mice, daily body weight
Protocol: Female BALB/c mice (groups of 3 mice, 6- to 8-week-old at study initiation, obtained from Vital River Laboratory Animal Technology Co., Ltd., China), were treated with vehicle (PBS pH 7.4) or the indicated antibody-cytokine conjugate (at 6 mg/kg), and compared to IC1 (at 6 mg/kg). In all cases a single dose was administered via s.c. injection. After dosing, all animals were measured daily for body weight (Figures 28 and 29, top graphs). Based on the read-out of this initial study, a second tolerability study was performed according to the same procedure but using dosing concentrations ranging from 3 to 12 mg/kg (Figures 28 and 29, middle graphs). Finally, a third study was performed according to the same procedure using dosing concentrations ranging from 4.5 to 18 mg/kg (Figures 28 and 29, bottom graphs).

CT26 tumor cells = test: In vivo efficacy in CT26 syngeneic colon cancer model; design: species or system Female BALB/c mice; settings: s.c. 3 or 6 mg/kg on day 0 and day 7; tumor volume
Protocol: Female BALB/c mice (5- to 8-week-old at study initiation, obtained from Vital River Laboratory Animal Technology Co., Ltd., China) were inoculated subcutaneously it the right rear flank region with 5 × 10^5 CT26 tumor cells in 0.1 ml of PBS for tumor development. When the tumor volume was in the range of 70 to 120 mm^3, groups of eight mice were injected s.c. with either vehicle (PBS pH 7.4) or the indicated antibody-cytokine conjugate (either 3 or 6 mg/kg as indicated). In all cases a dose was administered on day 0 and 7.

[3] = Stability in PBS pH 7.4 at 37°C by RP-UPLC (cytokine-to-antibody ratio); settings: 1 mg/mL in PBS pH 7.4, 37°C
[4] = Table 4, pre-treated with MT-SP1 (+)
[5] = pre-treated with MT-SP1, versus mPD-L1-v1a-218-NHO2-PF52 (2:2)

B1: mPD-L1-v1a-218-NHO1-PF51 (2:2): conjugate of azido-remodeled anti-murine PD-L1 antibody mPD-L1-v1a with 218-NHO1-PF51 (SYR-cleavable linker 2-IL15), 2:2 format (conjugate)
light: QSALTQPASVSGSPGQSITISCTGTSSDVGAYNYVSWYQQHPGKAPKLMIYDVSNRPSGVSNRFSGSKSGNTASLTISGLQAEDEADYYCSSYTSSSTRVFGTGTKVTVLGQPKANPTVTLFPPSSEELQANKATLVCLISDFYPGAVTVAWKADGSPVKAGVETTKPSKQSNNKYAASSYLSLTPEQWKSHRSYSCQVTHEGSTVEKTVAPTEC
heavy: EVQLLESGGGLVQPGGSLRLSCAASGFTFSAYRMFWVRQAPGKGLEWVSSIYPSGGITFYADSVKGRFTISRDNSKNTLYLQMNSLRAEDTAIYYCARIKLGTVTTVDYWGQGTLVTVSSASTKGPSVFPLAPSSKSTSGGTAALGCLVKDYFPEPVTVSWNSGALTSGVHTFPAVLQSSGLYSLSSVVTVPSSSLGTQTYICNVNHKPSNTKVDKRV[human IgG1 Fc cut from this listing]
chain: MSYRGGGGSGGGGSRASRANGS[about 120 residues cut from this listing]
[1]
  Aggregation after freeze-thaw cycles: less prone to aggregation
IL-15 cells; [4]
  EC50: 3.8 pM
  Fold induction (maximum): 7.5
IL-15 cells; pre-treated with MT-SP1
  Potency in terms of EC50 values and maximum fold induction compared to the genetic fusion IC1: higher potency
[2]; single dose s.c. at 18 mg/kg
  Mean body weight loss: ≤ 10%
[2]; single dose s.c. at 6 and 12 mg/kg
  Signs of toxicity: no signs of toxicity
[2]
  MTD: ~ 18 mg/kg

B2: mPD-L1-v1a-145-NHO2-PF52 (2:1): conjugate of mPD-L1-v1a-145 (cross-linked with trivalent linker 145) with NHO2-PF52, 2:1 format (conjugate)
light: B1 light
heavy: B1 heavy
chain: STGGGGSGGGGSRASRANGS[about 120 residues cut from this listing]
[1]
  Aggregation after freeze-thaw cycles: less prone to aggregation
IL-15 cells; [4]
  EC50: 7.7 pM
  Fold induction (maximum): 7.3
IL-15 cells; [5]
  Fold higher EC50 value compared to the 2:2 format: ~2 fold
[2]
  MTD: ~9 mg/kg
CT26 tumor cells
  Anti-tumor efficacy compared to the vehicle group: anti-tumor efficacy compared to the vehicle group

B3: mPD-L1-v1a-218-NHO2-PF54 (2:2): non-cleavable variant: conjugate of mPD-L1-v1a with 218-NHO2-PF54 (ST-(G4S)3GGS-IL15), 2:2 format (conjugate)
light: B1 light
heavy: B1 heavy
chain: STGGGGSGGGGSGGGGSGGS[about 120 residues cut from this listing]
[3]; day 1
  Stability as percentage of the cytokine-to-antibody ratio compared to T0: 99%
[3]; day 3
  Stability as percentage of the cytokine-to-antibody ratio compared to T0: 97%
[3]; day 7
  Stability as percentage of the cytokine-to-antibody ratio compared to T0: 95%
[3]; day 10
  Stability as percentage of the cytokine-to-antibody ratio compared to T0: 93%
[3]; day 14
  Stability as percentage of the cytokine-to-antibody ratio compared to T0: 92%
[3]; day 21
  Stability as percentage of the cytokine-to-antibody ratio compared to T0: 86%
[3]; day 28
  Stability as percentage of the cytokine-to-antibody ratio compared to T0: 85%

B4: mPD-L1-v1a-218-NHO2-PF56 (2:2): conjugate of mPD-L1-v1a with 218-NHO2-PF56 (ST-cleavable linker 2-IL15(E46G,V49R)), lacking IL-15Rα-binding, 2:2 format (conjugate)
light: B1 light
heavy: B1 heavy
chain: MSTGGGGSGGGGSRASRANGS[about 120 residues cut from this listing]
IL-15 cells; Table 5, MT-SP1 +, PF56 conjugate tested at 32 pM to 316 nM
  Fold induction (maximum): 5.2
IL-15 cells; [5]
  Fold higher EC50 value: > 1000 fold
[2]; single dose s.c. 6 mg/kg, day 5
  Mice found dead: 1 out of 3
[2]
  MTD: ~ 4.5 mg/kg
CT26 tumor cells
  Anti-tumor efficacy compared to the vehicle group: anti-tumor efficacy compared to the vehicle group
